Results reported in paper PMC4336329 (PLoS ONE, 2015).
About 14,000 (4.5%) of roughly 310,000 compounds showed an effect of 50% or more. The effect is printed as a negative number. The list shows a part of the results.

target: human ether-à-go-go-related gene (hERG) potassium channel (human, UniProt Q12809); assay: primary screen, population patch clamp on CHO cells stably expressing hERG
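Note: peak tail current of the secondary pulse compared with the same well before compound.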

Chain of human ether-à-go-go-related gene (hERG) potassium channel (Q12809 whole entry, looked up): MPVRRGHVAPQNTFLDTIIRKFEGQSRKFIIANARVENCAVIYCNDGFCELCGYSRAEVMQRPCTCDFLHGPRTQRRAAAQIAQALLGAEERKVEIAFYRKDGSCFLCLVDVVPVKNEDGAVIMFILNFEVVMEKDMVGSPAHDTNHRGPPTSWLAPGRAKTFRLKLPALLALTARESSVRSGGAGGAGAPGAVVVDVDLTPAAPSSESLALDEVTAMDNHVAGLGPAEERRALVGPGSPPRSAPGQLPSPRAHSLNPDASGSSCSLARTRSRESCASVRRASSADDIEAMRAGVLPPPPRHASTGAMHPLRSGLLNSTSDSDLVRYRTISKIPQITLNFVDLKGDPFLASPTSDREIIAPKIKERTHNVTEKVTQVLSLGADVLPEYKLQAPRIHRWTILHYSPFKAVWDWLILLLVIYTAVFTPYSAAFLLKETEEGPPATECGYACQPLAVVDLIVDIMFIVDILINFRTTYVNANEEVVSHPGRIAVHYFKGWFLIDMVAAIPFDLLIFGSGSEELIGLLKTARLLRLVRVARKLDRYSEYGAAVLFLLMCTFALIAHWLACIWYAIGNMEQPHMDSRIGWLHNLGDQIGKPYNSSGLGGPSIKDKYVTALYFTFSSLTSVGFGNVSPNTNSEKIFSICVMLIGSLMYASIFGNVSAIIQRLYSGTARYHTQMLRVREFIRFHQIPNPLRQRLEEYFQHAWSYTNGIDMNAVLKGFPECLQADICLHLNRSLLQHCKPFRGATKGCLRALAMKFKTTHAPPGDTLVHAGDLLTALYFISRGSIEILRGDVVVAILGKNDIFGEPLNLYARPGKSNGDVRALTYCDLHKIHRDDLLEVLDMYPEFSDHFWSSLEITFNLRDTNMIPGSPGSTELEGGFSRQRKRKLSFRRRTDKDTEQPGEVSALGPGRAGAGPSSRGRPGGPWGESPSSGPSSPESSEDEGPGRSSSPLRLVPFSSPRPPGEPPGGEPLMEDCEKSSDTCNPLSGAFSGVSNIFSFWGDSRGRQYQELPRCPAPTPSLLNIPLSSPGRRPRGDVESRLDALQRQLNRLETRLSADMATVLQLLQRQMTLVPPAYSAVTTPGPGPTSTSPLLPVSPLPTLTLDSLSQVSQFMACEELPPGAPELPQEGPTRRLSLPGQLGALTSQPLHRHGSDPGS

Row | SMILES | hERG current change (%, negative = inhibition) at 10uM [%]
1 | NC(=O)COc1ccc(Cc2ncc(C(F)(F)F)cc2Cl)cc1 | -2.34
2 | COc1cc(NC(=O)NCCN2CCN(c3ccc(Cl)cc3)CC2)ccc1C | -4.15
3 | C[C@H]1c2cccc(O)c2C(O)=C2C(=O)C3(O)C(O)=C(C(N)=O)C(=O)[C@@H](N(C)C)[C@@H]3[C@@H](O)[C@@H]21.Cl (some centres unmarked) | 25.1
4 | O=S(=O)(NCCC1=CCCCC1)c1cccc(S(=O)(=O)N2CCOCC2)c1 | -11.9
5 | Cn1nnnc1-c1cc(Br)ccc1NC(=O)c1ccccc1 | 10.2
6 | COc1ccc(-n2nc3c(c2NC(=O)c2c(-c4ccccc4Cl)noc2C)CS(=O)(=O)C3)cc1 | -23.8
7 | CC(C)=CCN1CCN(Cc2cc(F)ccc2-n2nc(C)cc2C)CC1CCO (centres unmarked) | -25
8 | CSCC[C@@H](C(=O)NCCCCCCCCCCC(=O)N1CCNCC1)n1cc(CCO)nn1 | 13.4
9 | Cc1ccc(C)c2nc3sc(C(=O)O)cc3cc12 | 20.9
10 | N#CCCn1cc(C(=O)Nc2cccc(C(=O)O)c2)c(-c2ccc(Cl)cc2)n1 | 14.5
11 | COc1cccc(/C=N/Nc2ncnc(Cl)c2N)c1O | 4.83
12 | CCCCC(=O)NCCc1cc2ccc(OC)cc2[nH]c1=O | -1.37
13 | Cc1ccc(NC(=O)C2CC(O)CN2C(=O)Oc2ccccc2)c(C)c1 (centres unmarked) | 14.3
14 | Cc1ccc(-c2nnc(SCC(=O)N3CCN(c4ccccc4)CC3)o2)cc1 | 10.5
15 | CCOc1ncccc1C(=O)N1CCCSC1=Nc1ccccc1OC | 9.21
16 | COc1ccc(C(CNC(=O)c2cc3c(s2)CCC(C)C3)N2CCOCC2)cc1 (centres unmarked) | -54
17 | CCOc1ccc(CN(C)C(=O)c2cc(S(=O)(=O)N3CCCC3)ccc2C)cc1 | -34.1
18 | Cl.O=C(c1ccc(F)cc1)C(CN1CCOCC1)c1ccccc1 (centres unmarked) | -12.3
19 | CN(CC(=O)Nc1cccc(F)c1)C(=O)CC1CC2CCC1C2 (centres unmarked) | -1.76

Row | SMILES | hERG current change (%, negative = inhibition) at 10uM [%]
20 | Cc1ccc(-c2cc(-c3cccc(F)c3)n[nH]2)c(O)c1 | 4.9
21 | O=C(Nc1ccccc1)c1sc2cc(C(F)(F)F)cnc2c1-c1cccs1 | -5.56
22 | O=C(/C=C/Nc1ccc(S(=O)(=O)Nc2cnc3ccccc3n2)cc1)c1ccccc1 | -0.234
23 | Cn1cc(/C=C(\C(=O)O)C(C(=O)O)=C2CCCCC2)c2ccccc21 | 3.75
24 | C=C(C)CNC(=S)N/N=C/c1ccc([N+](=O)[O-])cc1 | 14.4
25 | COCCNC(=O)CN(C(=O)CCC(=O)Nc1ccccn1)c1ccccc1F | 18.5
26 | Cc1cc(C)c(NC(=O)CNC(=O)CSc2nnc(N)s2)c(C)c1 | 16.7
27 | Cc1nn(Cc2ccc(F)cc2)c(C)c1NC(=O)c1cnn2cccnc12 | 0.0468
28 | CC(CC(=O)Nc1ccccc1C(F)(F)F)c1ccccc1 (centres unmarked) | -11.5
29 | CC1CCCN(C(=O)c2ccncc2)C1 (centres unmarked) | 1.39
30 | CCCCOc1ccc(C(C)(O)CCN2CCOCC2)cc1 (centres unmarked) | -2.97
31 | CC(C)(C(=O)c1ccccc1)/[N+]([O-])=C/c1ccc(Br)cc1 | 7.9
32 | COc1ccc(S(=O)(=O)NCC(=O)N(CC(=O)NCC2CCCO2)c2cc(C)ccc2C)cc1 (centres unmarked) | 2.96
33 | CSc1ccccc1-c1nnc(-c2ccc(Cl)cc2Cl)o1 | 7.18
34 | Cn1cc(C(C[N+](=O)[O-])c2ccccc2)c2ccccc21 (centres unmarked) | 6.13
35 | C=CCNc1nc(Cl)ncc1F | -7.52
36 | Cc1c(C)n2c(SCC(=O)N3CC(C)OC(C)C3)nnc2[nH]c1=O (centres unmarked) | 9.45
37 | O=C1ON=C(c2ccccc2)/C1=C/c1ccc(O)cc1 | 12.3
38 | O=C(N/C(=C/c1ccc(Cl)cc1)C(=O)N1CCCC1)c1ccccc1 | -8.81

Row | SMILES | hERG current change (%, negative = inhibition) at 10uM [%]
39 | O=C(COC(=O)c1ccc2c(c1)C(=O)N(c1cccc3ncccc13)C2=O)c1ccc(Cl)cc1 | 13.5
40 | COc1ccc(C(NC=O)c2cc(OC)c(OC)cc2Br)cc1OC (centres unmarked) | 13.6
41 | CC1CCCCN1S(=O)(=O)c1ccc(C(=O)Nc2nnc(-c3ccccc3Cl)o2)cc1 (centres unmarked) | -5.11
42 | COC(=O)c1ccc(COC(=O)c2ccc(CO)cc2)o1 | 20.5
43 | COCCN(C(=O)Nc1ccccc1OC)c1nc2ccccc2s1 | 19.9
44 | CCn1c(=O)c2c(nc3n2CCCN3c2cccc(C)c2)n(C)c1=O | -3.56
45 | Cc1ccccc1OCC(=O)NNC(=O)CN1C(=O)c2ccccc2C1=O | -9.07
46 | CCCCCCNC(=O)c1ccc(Br)o1 | -3
47 | CC(C)CCNC(=O)C(=O)Nc1cc2c3c(c1)CC(=O)N3CCC2 | -27
48 | CCCCC(CC)CNC(=O)c1ncn[nH]1 (centres unmarked) | 2.5
49 | Cl.NC(=O)c1c(NC(=O)c2c(F)cccc2F)sc2c1CCN(Cc1ccccc1)C2 | -17.7
50 | O=c1c2ccccc2nc(Cc2ccccc2)n1-c1ccc(O)cc1 | -23.9
51 | COC(=O)c1cn(NC(=O)Cc2cccc(C(F)(F)F)c2)c(=O)c2ccccc12 | 10.3
52 | CC(C)Cn1c(SCC(=O)NC2CCCc3ccccc32)nc(O)cc1=O (centres unmarked) | 17
53 | Cc1ccc(CN(C)CC(=O)Nc2cccc([N+](=O)[O-])c2)o1 | -58.4
54 | CCC(C)C(=O)Nc1ccc(OC)cc1[N+](=O)[O-] (centres unmarked) | 17.3
55 | O=C(CN1C(=O)C2C3C=CC(C3)C2C1=O)OCC(=O)c1ccc(Br)cc1 (centres unmarked) | -15.1
56 | CCCCCCCCCCOC(=O)Cn1c(COc2ccccc2C)[n+](C)c2ccccc21.[Cl-] | -72.5
